Laboratory results published in PubChem BioAssay AID1768 (National Center for Advancing Translational Sciences (NCATS), 2009).
Several values for one entry are separate records, joined by “and”; a condition that tells them apart may be missing. Identical values can stand only once. The campaign covered roughly 270,000 compounds. About 620 (0.23%) were called active. This list was built around the results that the source calls inconclusive (neither active nor inactive); the mix of calls is not that of the screen. Calls come from the whole dose curve; as a rule, active = well fitted inhibition curve with a large enough effect in the polarisation, with a control signal flat (not every such curve was filed as active); inconclusive = small, poorly fitted or top-dose-only effect, or effect the other way, or a change in a side signal; inactive = no such curve, though single readings can be large or run the other way; the % refers to the polarisation. Potencies of inconclusive entries are doubtful fits and often do not repeat. “Side channel” marks fits to a control or component signal instead of the main read-out.

Biological target: Menin (Homo sapiens) (UniProt O00255)
Assay: qHTS Assay for Inhibitors Targeting the Menin-MLL Interaction in MLL Related Leukemias: Competition With Texas Red Labeled MLL-derived Mutant Peptide
Settings: fluorescence polarization; series mostly up to 61.6 µM
Potency is the fitted concentration of half-maximal effect; tags give direction and shape of the fitted curve or compound fluorescence and quenching.

UniProt O00255, sequence (O00255 whole entry, looked up): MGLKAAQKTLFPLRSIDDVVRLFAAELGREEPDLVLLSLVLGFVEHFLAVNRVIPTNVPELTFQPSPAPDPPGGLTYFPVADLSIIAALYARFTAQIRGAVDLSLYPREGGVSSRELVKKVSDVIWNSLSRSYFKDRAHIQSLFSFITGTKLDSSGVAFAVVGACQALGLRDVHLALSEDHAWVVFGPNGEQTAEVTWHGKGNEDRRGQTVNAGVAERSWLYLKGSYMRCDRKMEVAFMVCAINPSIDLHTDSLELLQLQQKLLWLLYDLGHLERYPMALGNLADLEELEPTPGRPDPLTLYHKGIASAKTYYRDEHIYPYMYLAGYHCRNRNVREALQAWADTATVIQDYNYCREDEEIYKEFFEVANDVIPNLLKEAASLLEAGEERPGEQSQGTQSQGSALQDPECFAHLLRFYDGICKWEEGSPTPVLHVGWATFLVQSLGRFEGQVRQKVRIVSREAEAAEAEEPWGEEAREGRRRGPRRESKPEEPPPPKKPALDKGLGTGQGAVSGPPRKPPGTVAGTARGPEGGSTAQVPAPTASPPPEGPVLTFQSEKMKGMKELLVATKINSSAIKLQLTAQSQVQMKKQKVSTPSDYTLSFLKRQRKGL

Potency, inactive:
COc1ccccc1OC(=O)Nc1ccc(Cl)cc1
O=C1/C(=C\c2cccs2)CCC/C1=C/c1cccs1
Cn1nnnc1SCC(=O)N1CCN(c2ccc(Cl)cc2)CC1
Cn1c(=O)c2cc(S(=O)(=O)NCCC(=O)NCc3ccccc3Cl)ccc2n(C)c1=O
O=CN1CCN(C(=O)Cc2ccc([N+](=O)[O-])cc2)CC1
O=C(/C=C/c1ccc2c(c1)OCO2)c1cccs1
O=C(CN(c1cccc(C(F)(F)F)c1)S(=O)(=O)c1ccc(Cl)c([N+](=O)[O-])c1)NCc1ccccc1

Potency, inconclusive:
CCc1ccc(N2C(=O)CN(Cc3ccccc3)C2=S)cc1 39.8 µM [fluorescent, side channel, single point]
CCc1cc2cc(C)c(C)cc2nc1SCC(=O)NNC(=O)c1ccco1 7.08 µM [inhibitor, single point]
Cc1ccc(S(=O)(=O)NCCC(=O)Nc2ccc(Cl)c(Cl)c2)cc1C 12.6 µM [quencher, side channel, partial curve, poor fit]
COc1ccc(C(=O)C2CCCN(Cc3cccn3-c3ccccn3)C2)c(OC)c1 (configuration not stated) 28.2 µM [fluorescent, side channel, partial curve]
CCCCOC(=O)C1=C(C)NC(=O)NC1c1cc2c(cc1Br)OCO2 (configuration not stated) 22.4 µM [fluorescent, side channel, partial curve]
COc1cc(OC)cc(C(=O)Nc2ccc(-c3nc4ccccc4o3)c(O)c2)c1 10 µM [quencher, side channel, partial curve]
COc1cc(/C=C2\SC(=O)N(CC(=O)Nc3ccccc3F)C2=O)cc(Cl)c1O 25.1 µM [quencher, side channel, single point]
O=[N+]([O-])c1cccc(NC(=S)N2CCc3ccccc3C2)c1 7.08 µM [quencher, side channel, partial curve]
COc1ccc(-c2noc(N3CCC(C(=O)NCCCN4CC(C)CC(C)C4)CC3)n2)cc1 (configuration not stated) 31.6 µM [quencher, side channel, single point]
CCOC(=O)C1CCN(C(=O)Nc2ccc3nc(-c4ccco4)c(-c4ccco4)nc3c2)CC1 14.1 µM [quencher, side channel, partial curve]
COc1ccc(/C=N/Nc2nc(NCc3ccco3)nc(Nc3ccc(OC)cc3)n2)cc1 17.8 µM [quencher, side channel, partial curve]
O=S(=O)(Nc1ccc(-c2csc(-c3ccccc3)n2)cc1)c1ccc(F)cc1 10 µM [quencher, side channel, partial curve]
Cn1c(SCCOc2ccccc2Cl)nnc1-c1cccs1 39.8 µM [inhibitor, single point]
O=C(NC(=S)N(Cc1ccccc1)Cc1ccccc1)C1CCCCC1 22.4 µM [fluorescent, side channel, partial curve]
CCN(CC)c1ccc(N=Cc2cc(Br)ccc2O)cc1 22.4 µM [inhibitor, partial curve]
Cc1[nH]c(=O)c(C(=O)/C=C/c2ccccc2)c2c1CCCC2 20 µM [inhibitor, single point]
CCOc1cccc(/C(O)=C2/C(=O)C(=O)N(Cc3cccnc3)C2c2ccco2)c1 (configuration not stated) 8.91 µM [inhibitor, single point]
Cc1ccc2c(CN3CC(C)CC(C)C3)cc(=O)oc2c1 (configuration not stated) 10 µM [fluorescent, side channel, partial curve]
CCCC(=O)Nc1nn(C)c2nc3ccc(C)cc3cc12 39.8 µM [inhibitor, single point]
CCOC(=O)c1ccc(NC(=O)C(CC)(CC)C(=O)OCC)cc1 0.631 µM [inhibitor, full curve, poor fit]
COc1ccccc1NS(=O)(=O)c1cccc(NC(=O)Nc2ccccc2)c1 25.1 µM [quencher, side channel, partial curve]
COc1cc(/C=N/N2C(=O)CSC2=S)ccc1O 25.1 µM [fluorescent, single point]
COCc1cc(C)n(CC(=O)NCC2CCCO2)c(=O)c1C#N (configuration not stated) 39.8 µM [inhibitor, single point]
Cc1cccc(Nc2nc(N)c([N+](=O)[O-])c(NCc3ccco3)n2)c1 15.8 µM [quencher, side channel, partial curve]
COC(=O)C1C(O)C(C)C(O)C(C)(O)/C=C\C=C(/C)C(=O)Nc2c(C)c(OC(C)=O)c3c(c2O)C(=O)C(C)=C2OCOC(=C23)/C(C)=C/C(C)(O)C(O)C(C)C1O (configuration not stated) 31.6 µM [inhibitor, single point]
CCOC(=O)n1c(=O)n(Cc2cccc(C)c2)c2ccccc21 28.2 µM [fluorescent, side channel, partial curve]
Oc1cc2c(cc1O)CN(C(=S)NCCc1ccc(Cl)cc1)CCC2 10 µM [quencher, side channel, full curve] and 12.6 µM [quencher, side channel, partial curve]
O=C(Nc1nc2ccccc2s1)C1c2ccccc2Oc2ccccc21 39.8 µM [inhibitor, single point]
COc1cccc(-c2nc(NCc3ccccc3)c3ccccc3n2)c1O 3.16 µM [quencher, side channel, full curve]
O=C(COC(=O)c1ccc(Cl)c(S(=O)(=O)N2CCN(c3ccc(F)cc3)CC2)c1)Nc1cccc(Cl)c1 4.47 µM [inhibitor, partial curve, poor fit]
